# The supplement of paper PMC4166925
# ± gives the standard deviation of the averaged measurements. In all, about 33,000 sequences were measured (“E-score (dimensionless, -0.5 to 0.5)”: median about -0.046, highest 2% from about 0.36 on). Some of the results follow.
# Tested on: T1, SpTbr T-box DNA-binding domain (GST fusion)
# T1 sequence: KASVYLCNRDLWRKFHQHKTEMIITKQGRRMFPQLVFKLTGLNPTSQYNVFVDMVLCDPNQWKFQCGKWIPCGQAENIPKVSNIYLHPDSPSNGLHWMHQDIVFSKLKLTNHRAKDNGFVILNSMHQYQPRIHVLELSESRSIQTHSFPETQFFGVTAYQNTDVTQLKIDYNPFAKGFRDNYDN
# Assay: PBM E-score of 8-mer (E-score (dimensionless, -0.5 to 0.5)); Tbr is Tbrain of the sea star Patiria miniata (Pm) or the sea urchin Strongylocentrotus purpuratus (Sp); higher = stronger binding preference; most listed sequences are background and not binding sites
# Details: the construct has about 5 more residues each side
# How it was run: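 Using the Universal PBM Analysis Suite, every ungapped 8-mer received an enrichment E-score averaged over duplicate arrays. Probe intensities came from double-stranded Universal Agilent oligonucleotide arrays incubated with 200 nM GST-fused Tbr T-box DNA-binding domain in PBS (pH 7.5). That protein was expressed in BL21 E. coli at 20 °C and purified by glutathione affinity chromatography.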
row,Sequence,PBM E-score of 8-mer
1,ATATTTCG,0.157 ± 0.045
2,AAGTATGC,-0.00957 ± 0.004
3,ATGCCGTC,-0.0234 ± 0.07
4,GCTTAATA,-0.175 ± 0.049
5,ATGGTCTG,-0.14 ± 0.07
6,CATTCGAA,-0.139 ± 0.062
7,ATTCGTTG,-0.119 ± 0.044
8,GATGGGAC,-0.0989 ± 0.058
9,GATGTAAC,-0.0143 ± 0.042
10,GATCCACA,0.153 ± 0.018
11,AAATTCCG,0.0048 ± 0.067
12,TGCCGGAA,0.00701 ± 0.028
13,GCTGTTTA,-0.00322 ± 0.026
14,GACGACTA,0.0751 ± 0.046
15,ACACTATC,0.315 ± 0.037
16,TCACACCA,0.4853 ± 0.0026
17,CCTCTCCA,-0.0753 ± 0.045
18,CAGAATGC,0.0116 ± 0.023
19,AGCCGGTC,-0.23 ± 0.05
20,CGTCTTCA,0.0585 ± 0.015
21,ACGGGTGA,0.154 ± 0.07
22,GCCCACGC,-0.00206 ± 0.064
23,CATAATTC,-0.0609 ± 0.065
24,ACGAGTCA,-0.0179 ± 0.03
25,AAATGTAC,-0.164 ± 0.017

row,Sequence,PBM E-score of 8-mer
1,TAAACTAA,-0.0791 ± 0.025
2,CGAAGAAA,0.0153 ± 0.038
3,AGTGATCC,-0.191 ± 0.056
4,CCGGGAGA,0.0264 ± 0.034
5,CCCCAGTA,-0.118 ± 0.0053
6,GTCTTAAC,-0.0678 ± 0.003
7,CAATTTAC,0.0958 ± 0.01
8,ATAGGCTC,-0.167 ± 0.02
9,CCAAGAGC,-0.28 ± 0.06
10,CCGAAACG,-0.0396 ± 0.06
11,CGTAGTGC,-0.0779 ± 0.017
12,GATATGCC,-0.036 ± 0.044
13,CGAGAACA,0.251 ± 0.0091
14,CCGTGGTC,-0.0142 ± 0.021
15,GGAAGCCA,-0.144 ± 0.073
16,CCGCACCA,0.186 ± 0.032
17,CCGAGCAA,-0.342 ± 0.027
18,CAGATAGA,-0.131 ± 0.025
19,AATGTACG,-0.0841 ± 0.011
20,AAGACAAT,-0.0151 ± 0.026
21,CCTTCTAC,-0.101 ± 0.061
22,AGTATAGA,-0.196 ± 0.054
23,ACAGTTCC,0.102 ± 0.057
24,CGCGGCCG,-0.0257 ± 0.089
25,GTGCTTCA,-0.0552 ± 0.0097

row,Sequence,PBM E-score of 8-mer
1,ACGCCCCA,0.167 ± 0.026
2,CTTCTTGC,0.0112 ± 0.02
3,GGGAAGCA,-0.108 ± 0.014
4,CGCCAGCC,0.0479 ± 0.008
5,ACACTGGC,0.0145 ± 0.013
6,CGGCGGAC,-0.136 ± 0.046
7,CGTTCCAG,-0.116 ± 0.065
8,TACAGAGA,-0.0976 ± 0.025
9,GCAACTGC,0.06396 ± 0.00043
10,CCAGAGAA,-0.0442 ± 0.074
11,ACTTGGGG,0.0655 ± 0.11
12,AATGCCCA,-0.142 ± 0.056
13,ATCTCGGC,-0.162 ± 0.079
14,GCCCATTA,-0.2784 ± 0.00071
15,CAAAAAAC,0.0928 ± 0.037
16,GACAAACC,0.014 ± 0.012
17,ACAATAAG,-0.0246 ± 0.0034
18,CGTAGGAG,-0.1355 ± 0.0004
19,ACTGGTCC,-0.343 ± 0.053
20,CACGTCAG,0.268 ± 0.047
21,ATAACTAA,-0.0433 ± 0.019
22,ATGTTTAC,0.0746 ± 0.011
23,AAACCTTG,-0.17 ± 0.045
24,TCCATCAA,-0.0498 ± 0.014
25,GGAGGTGA,0.374 ± 0.035

row,Sequence,PBM E-score of 8-mer
1,GATGCTTA,-0.168 ± 0.0076
2,AGTCAACC,-0.0257 ± 0.009
3,GGCTGCAC,0.103 ± 0.013
4,GGCATTAA,-0.191 ± 0.03
5,AAGTATCT,-0.282 ± 0.0068
6,GCGCAGAA,-0.0239 ± 0.0019
7,CGCTCAAC,-0.114 ± 0.091
8,ACATTCGA,-0.164 ± 0.0077
9,ATAATAAT,-0.154 ± 0.035
10,AGCAGGAT,-0.172 ± 0.1
11,ACCCCCGC,0.0847 ± 0.022
12,GAACAGAC,-0.0406 ± 0.00095
13,GTTGGGAA,0.0689 ± 0.011
14,GGGATATA,0.00746 ± 7.1e-05
15,AGCCGGGC,-0.259 ± 0.063
16,GAGCAGGC,-0.0942 ± 0.062
17,AGCCCCGA,-0.183 ± 0.0085
18,ATCATAAG,-0.0133 ± 0.12
19,TAGGCCAA,-0.279 ± 0.019
20,GTGGGTAA,-0.02 ± 0.036
21,ACTGAAGT,-0.084 ± 0.015
22,GACAGGCA,-0.0464 ± 0.052
23,ATTCGATC,-0.0772 ± 0.017
24,AAAGTATT,-0.174 ± 0.07
25,CGGTGTAA,0.216 ± 0.014

row,Sequence,PBM E-score of 8-mer
1,CACGCGCC,0.299 ± 0.037
2,GGTATAGA,-0.183 ± 0.074
3,GTCAGAGA,-0.0734 ± 0.08
4,TTATGGAA,-0.127 ± 0.062
5,ATGCAAAC,0.0363 ± 0.037
6,ATTGACGA,0.145 ± 0.003
7,CAGCCTGA,-0.134 ± 0.018
8,CCCATAAA,-0.142 ± 0.04
9,ACTTTTAC,0.0186 ± 0.12
10,AGCACGGC,-0.0477 ± 0.075
11,ACAGGAGT,-0.0315 ± 0.053
12,GAGTCCCC,-0.196 ± 0.022
13,ATCCAATC,-0.07751 ± 0.00066
14,ACTTAGAA,-0.0461 ± 0.016
15,TACGCTGA,-0.147 ± 0.16
16,AGAAATAA,-0.0669 ± 0.051
17,AATGGTGA,0.102 ± 0.017
18,GCCATAGA,-0.0736 ± 0.036
19,CGGCGAAA,-0.2 ± 0.037
20,AATCTTAA,-0.0549 ± 0.021
21,CGGGCTGA,-0.144 ± 0.0076
22,AGACTTAA,-0.102 ± 0.14
23,CGCCTGTA,0.133 ± 0.039
24,ATCCGGAG,-0.172 ± 0.015
25,AAACAATG,0.128 ± 0.072

row,Sequence,PBM E-score of 8-mer
1,AATAAATG,-0.17 ± 0.029
2,GTGGGCTA,-0.101 ± 0.05
3,AGAAGTCG,0.0783 ± 0.05
4,CATGTCTA,0.01 ± 0.06
5,ACATGCAT,-0.0915 ± 0.029
6,CCCACCGG,-0.0702 ± 0.011
7,GTGGATGA,-0.139 ± 0.013
8,GAACCTGC,-0.126 ± 0.13
9,AAGCCGTC,0.0174 ± 0.019
10,ACTGTCAT,0.196 ± 0.032
11,AGATTTAC,-0.0921 ± 0.066
12,AAACAGGC,-0.0842 ± 0.026
13,GGAGAGAA,0.104 ± 0.023
14,AAGAACAA,-0.214 ± 0.045
15,ATGGTACC,-0.185 ± 0.049
16,CTTCGATC,-0.0691 ± 0.011
17,TGCACACA,0.207 ± 0.048
18,CACAACGG,0.193 ± 0.026
19,CATGGCCG,-0.188 ± 0.0012
20,ATGGAAGG,-0.128 ± 0.014
21,GATCCGTA,-0.0313 ± 0.14
22,CCTTGAGC,-0.00589 ± 0.043
23,CAAGAATA,-0.238 ± 0.077
24,ATCTACGC,0.0411 ± 0.049
25,TGGTAGAA,0.0235 ± 0.068

row,Sequence,PBM E-score of 8-mer
1,TAAAAGAA,0.00102 ± 0.069
2,CCCTACCG,-0.178 ± 0.038
3,CATACTGC,-0.0772 ± 0.055
4,CAGGCGGG,0.038 ± 0.026
5,ACAGTCAT,0.0191 ± 0.069
6,AACAGTCA,0.12612 ± 2.1e-05
7,ACCGCTCC,-0.236 ± 0.029
8,AGTGGCAC,0.296 ± 0.049
9,CGGTAACC,-0.124 ± 0.02
10,GTTCAAAC,-0.161 ± 0.083
11,ATGAAGAG,-0.199 ± 0.02
12,ATGACTCA,-0.0209 ± 0.0025
13,CTTCGAAA,-0.106 ± 0.022
14,AAGTGAGG,0.2725 ± 0.0021
15,CCTGGATC,-0.08879 ± 0.00069
16,CTGCGCAG,0.045 ± 0.1
17,ATCTTCTC,0.0149 ± 0.033
18,CTCACGCA,0.375 ± 0.022
19,CCATGCCC,-0.106 ± 0.013
20,ACCCGCAA,-0.0153 ± 0.03
21,ACTTGTTA,0.347 ± 0.035
22,CGAACCTA,-0.188 ± 0.054
23,ATTATAAC,0.0847 ± 0.081
24,CTGGGCCA,-0.18 ± 0.071
25,ATGCCAAC,0.124 ± 0.0029

row,Sequence,PBM E-score of 8-mer
1,CAACGATA,-0.0332 ± 0.025
2,AAATCTAG,-0.15 ± 0.11
3,GCGACTGA,-0.00539 ± 0.033
4,GTGTTAGA,0.384 ± 0.0066
5,AGGAGTCG,0.0301 ± 0.00098
6,CAGCACAG,-0.132 ± 0.045
7,AGATCCGC,-0.00131 ± 0.041
8,GCTGGCAA,0.104 ± 0.038
9,ATTAGTGC,0.063 ± 0.056
10,TCAGGCGA,0.126 ± 0.024
11,CACAGCGG,0.133 ± 0.013
12,AATAGGGA,-0.012 ± 0.089
13,GAACAATA,-0.0637 ± 0.052
14,ATTCCGTG,-0.1282 ± 0.00087
15,ACTATCTA,0.0219 ± 0.065
16,CAGAAGAG,-0.205 ± 0.0083
17,CCGTCGCG,0.109 ± 0.0088
18,AAATTTGT,0.169 ± 0.019
19,AGGAAGAT,-0.2357 ± 0.0023
20,GAGAAGAC,-0.0777 ± 0.061
21,GGTGTTTA,0.386 ± 0.015
22,CCGAGAGG,0.0297 ± 0.035
23,GTTCGGGA,-0.236 ± 0.063
24,GAGCAAGA,-0.187 ± 0.011
25,CAGCCTCG,-0.0479 ± 0.0025

row,Sequence,PBM E-score of 8-mer
1,CCTGCCCG,-0.0604 ± 0.037
2,AGAATGTG,0.304 ± 0.03
3,GTGAGATA,0.313 ± 0.023
4,AGACTAAA,-0.119 ± 0.087
5,CACGCCAG,0.231 ± 0.0028
6,ATCCGAGC,-0.175 ± 0.052
7,CCACGAAG,-0.13 ± 0.028
8,CTTTACCA,0.00926 ± 0.048
9,CCGTGCCG,-0.0886 ± 0.13
10,CGTACAAA,-0.24 ± 0.015
11,CATTATCA,0.108 ± 0.039
12,ACCGCTAA,0.0775 ± 0.031
13,AGACAATA,-0.0805 ± 0.021
14,AGCGAAAG,-0.123 ± 0.022
15,AATTTAAT,-0.319 ± 0.045
16,GCGAGAGC,0.217 ± 0.043
17,GCAAATGA,-0.0363 ± 0.045
18,AATTTGCT,-0.0196 ± 0.11
19,CAAATGCA,-0.268 ± 0.027
